Assay results reported in the supplement of paper PMC8728848.
The other results are listed elsewhere or left out.

Legend:
Assay in all cases: glycan array binding signal (z-score within array); higher = stronger binding
Settings in all cases: glycan notation: IUPAC condensed, linker removed
[1] = target: Neu5Ac(a2-6)Gal(b1-4)GlcNAc(b1-2)Man(a1-3)[Man(a1-6)]Man(b1-4)GlcNAc(b1-4)GlcNAc
In short: (§1)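 The binding signal is a Z-score computed within each array and averaged over linkers. Arrays of the same protein sequence at different concentrations or buffers were also averaged together. Data originate from 3228 arrays in the Consortium for Functional Glycomics database, kept only where the protein sequence was available.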

[2] = target: Neu5Ac(a2-6)Gal(b1-4)GlcNAc(b1-2)Man(a1-3)[Neu5Ac(a2-3)Gal(b1-4)GlcNAc(b1-2)Man(a1-6)]Man(b1-4)GlcNAc(b1-4)GlcNAc
In short: as §1

[3] = target: Neu5Ac(a2-6)Gal(b1-4)GlcNAc(b1-2)Man(a1-3)[Neu5Ac(a2-6)Gal(b1-4)GlcNAc(b1-2)Man(a1-6)]Man(b1-4)GlcNAc(b1-4)GlcNAc
In short: as §1

[4] = target: Neu5Ac(a2-6)Gal(b1-4)GlcNAc(b1-2)Man(a1-3)[Neu5Ac(a2-6)Gal(b1-4)GlcNAc(b1-2)Man(a1-6)]Man(b1-4)GlcNAc(b1-4)[Fuc(a1-6)]GlcNAc
In short: as §1

[5] = target: Neu5Ac(a2-6)Gal(b1-4)GlcNAc(b1-2)Man(a1-6)Man(b1-4)GlcNAc(b1-4)GlcNAc
In short: as §1

[6] = target: Neu5Ac(a2-6)Gal(b1-4)GlcNAc(b1-2)Man(a1-6)[Gal(b1-4)GlcNAc(b1-2)Man(a1-3)]Man(b1-4)GlcNAc(b1-4)GlcNAc
In short: as §1

[7] = target: Neu5Ac(a2-6)Gal(b1-4)GlcNAc(b1-2)Man(a1-6)[GlcNAc(b1-2)Man(a1-3)]Man(b1-4)GlcNAc(b1-4)GlcNAc
In short: as §1

[8] = target: Neu5Ac(a2-6)Gal(b1-4)GlcNAc(b1-2)Man(a1-6)[Man(a1-3)]Man(b1-4)GlcNAc(b1-4)GlcNAc
In short: as §1

[9] = target: Neu5Ac(a2-6)Gal(b1-4)GlcNAc(b1-2)[Neu5Ac(a2-6)Gal(b1-4)GlcNAc(b1-4)]Man(a1-3)[GlcNAc(b1-4)][Neu5Ac(a2-6)Gal(b1-4)GlcNAc(b1-2)[Neu5Ac(a2-6)Gal(b1-4)GlcNAc(b1-6)]Man(a1-6)]Man(b1-4)GlcNAc(b1-4)GlcNAc
In short: as §1

[10] = target: Neu5Ac(a2-6)Gal(b1-4)GlcNAc(b1-2)[Neu5Ac(a2-6)Gal(b1-4)GlcNAc(b1-4)]Man(a1-3)[GlcNAc(b1-4)][Neu5Ac(a2-6)Gal(b1-4)GlcNAc(b1-4)Man(a1-6)]Man(b1-4)GlcNAc(b1-4)GlcNAc
In short: as §1

[11] = target: Neu5Ac(a2-6)Gal(b1-4)GlcNAc(b1-2)[Neu5Ac(a2-6)Gal(b1-4)GlcNAc(b1-6)]Man(a1-6)[Neu5Ac(a2-6)Gal(b1-4)GlcNAc(b1-2)Man(a1-3)][GlcNAc(b1-4)]Man(b1-4)GlcNAc(b1-4)GlcNAc
In short: as §1

[12] = target: Neu5Ac(a2-6)Gal(b1-4)GlcNAc(b1-3)Gal(b1-3)GlcNAc
In short: as §1

[13] = target: Neu5Ac(a2-6)Gal(b1-4)GlcNAc(b1-3)Gal(b1-4)GlcNAc
In short: as §1

[14] = target: Neu5Ac(a2-6)Gal(b1-4)GlcNAc(b1-3)Gal(b1-4)GlcNAc(b1-2)Man(a1-3)[Neu5Ac(a2-6)Gal(b1-4)GlcNAc(b1-3)Gal(b1-4)GlcNAc(b1-2)Man(a1-6)]GalNAc
In short: as §1

[15] = target: Neu5Ac(a2-6)Gal(b1-4)GlcNAc(b1-3)Gal(b1-4)GlcNAc(b1-3)Gal(b1-4)GlcNAc
In short: as §1

[16] = target: Neu5Ac(a2-6)Gal(b1-4)GlcNAc(b1-3)Gal(b1-4)GlcNAc(b1-3)Gal(b1-4)GlcNAc(b1-2)Man(a1-3)[Neu5Ac(a2-6)Gal(b1-4)GlcNAc(b1-3)Gal(b1-4)GlcNAc(b1-3)Gal(b1-4)GlcNAc(b1-2)Man(a1-6)]GalNAc
In short: as §1

[17] = target: Neu5Ac(a2-6)Gal(b1-4)GlcNAc(b1-3)Gal(b1-4)GlcNAc(b1-3)GalNAc
In short: as §1

[18] = target: Neu5Ac(a2-6)Gal(b1-4)GlcNAc(b1-3)Gal(b1-4)GlcNAc(b1-3)[Neu5Ac(a2-6)Gal(b1-4)GlcNAc(b1-3)Gal(b1-4)GlcNAc(b1-6)]GalNAc
In short: as §1

[19] = target: Neu5Ac(a2-6)Gal(b1-4)GlcNAc(b1-3)Gal(b1-4)GlcNAc(b1-6)[Gal(b1-3)]GalNAc
In short: as §1

[20] = target: Neu5Ac(a2-6)Gal(b1-4)GlcNAc(b1-3)Gal(b1-4)[Fuc(a1-3)]GlcNAc(b1-3)Gal(b1-4)[Fuc(a1-3)]GlcNAc
In short: as §1

[21] = target: Neu5Ac(a2-6)Gal(b1-4)GlcNAc(b1-3)GalNAc
In short: as §1

[22] = target: Neu5Ac(a2-6)Gal(b1-4)GlcNAc(b1-3)[Neu5Ac(a2-6)Gal(b1-4)GlcNAc(b1-6)]GalNAc
In short: as §1

[23] = target: Neu5Ac(a2-6)Gal(b1-4)GlcNAc(b1-6)GalNAc
In short: as §1

[24] = target: Neu5Ac(a2-6)Gal(b1-4)GlcNAc(b1-6)[Gal(b1-3)GlcNAc(b1-3)]Gal(b1-4)Glc
In short: as §1

[25] = target: Neu5Ac(a2-6)Gal(b1-4)GlcNAc(b1-6)[Gal(b1-3)]GalNAc
In short: as §1

[26] = target: Neu5Ac(a2-6)Gal(b1-4)GlcNAc6S
In short: as §1

Neu5Ac(a2-6)GalNAc = target: Neu5Ac(a2-6)GalNAc
In short: as §1

[27] = target: Neu5Ac(a2-6)GalNAc(b1-4)GlcNAc
In short: as §1

[28] = target: Neu5Ac(a2-6)GalNAc(b1-4)GlcNAc6S
In short: as §1

[29] = target: Neu5Ac(a2-6)GlcNAc(b1-4)GlcNAc
In short: as §1

[30] = target: Neu5Ac(a2-6)GlcNAc(b1-4)GlcNAc(b1-4)GlcNAc
In short: as §1

B1: FGFR2-Fc (protein)
chain: MVNVTDAISSGDDEDDTDGAEDFVSENSNNKRAPYWTNTEKMEKRLHAVPAANTVKFRCPAGGNPMPTMRWLKNGKEFKQEHRIGGYKVRNQHWSLIMESVVPSDKGNYTCVVENEYGSINHTYHLDVVERSPHRPILQAGLPANASTVVGGDVEFVCKVYSDAQPHIQWIKHVEKNGSKYGPDGLPYLKVLKHSGINSSNAEVLALFNVTEADAGEYICKVSNYIGQANQSAWLTVLPKQQAPGREKEITASPDYLETRPLEQKLISEEDLAANDILDYKDDDDKV
glycan array binding signal (z-score) [1]: -0.055 | glycan array binding signal (z-score) [2]: -0.161 | glycan array binding signal (z-score) [3]: 0.39 | glycan array binding signal (z-score) [4]: 0.517 | glycan array binding signal (z-score) [5]: 0.242 | glycan array binding signal (z-score) [6]: 0.258 | glycan array binding signal (z-score) [7]: -0.077 | glycan array binding signal (z-score) [8]: -0.126 | glycan array binding signal (z-score) [9]: 0.096 | glycan array binding signal (z-score) [10]: -0.026 | glycan array binding signal (z-score) [11]: -0.439 | glycan array binding signal (z-score) [12]: -0.108 | glycan array binding signal (z-score) [13]: -0.58 | glycan array binding signal (z-score) [14]: -0.158 | glycan array binding signal (z-score) [15]: -0.107 | glycan array binding signal (z-score) [16]: 1.17 | glycan array binding signal (z-score) [17]: -0.769 | glycan array binding signal (z-score) [18]: 0.238 | glycan array binding signal (z-score) [19]: 0.737 | glycan array binding signal (z-score) [20]: 0.114 | glycan array binding signal (z-score) [21]: -0.061 | glycan array binding signal (z-score) [22]: 0.42 | glycan array binding signal (z-score) [23]: -0.19 | glycan array binding signal (z-score) [24]: 0.027 | glycan array binding signal (z-score) [25]: -0.282 | glycan array binding signal (z-score) [26]: -0.724 | glycan array binding signal (z-score) (Neu5Ac(a2-6)GalNAc): 0.386 | glycan array binding signal (z-score) [27]: -0.576 | glycan array binding signal (z-score) [28]: 0.196 | glycan array binding signal (z-score) [29]: 0.304 | glycan array binding signal (z-score) [30]: -0.641
